{"source": "the supplement of paper PMC3334620", "note": "Over roughly 33,000 sequences, “E-score (-0.5 to 0.5)” has its median near -0.016; the highest 2% begin near 0.32. This is one part of the list.", "data": [{"target": "T1, Stp1 (UniProt B3LFK1)", "T1 sequence": "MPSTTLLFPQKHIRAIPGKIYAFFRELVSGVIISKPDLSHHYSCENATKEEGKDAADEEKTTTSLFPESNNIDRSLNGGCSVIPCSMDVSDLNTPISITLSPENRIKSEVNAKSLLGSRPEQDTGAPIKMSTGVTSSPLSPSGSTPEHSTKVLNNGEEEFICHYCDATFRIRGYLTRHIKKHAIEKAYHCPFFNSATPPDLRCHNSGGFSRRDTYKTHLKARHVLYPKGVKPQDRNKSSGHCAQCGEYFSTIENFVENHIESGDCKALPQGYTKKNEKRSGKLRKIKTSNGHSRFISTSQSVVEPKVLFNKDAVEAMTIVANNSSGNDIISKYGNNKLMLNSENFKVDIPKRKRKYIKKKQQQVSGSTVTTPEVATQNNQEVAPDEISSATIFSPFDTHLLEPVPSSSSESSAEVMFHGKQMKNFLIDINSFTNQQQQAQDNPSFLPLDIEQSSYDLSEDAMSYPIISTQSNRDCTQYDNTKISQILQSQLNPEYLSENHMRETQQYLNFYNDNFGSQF", "assay": "PBM E-score (8-mer binding enrichment) (E-score (-0.5 to 0.5)); higher = stronger / more preferred TF binding; most listed sequences are background and not binding sites", "conditions": "protein concentration: 200 nM; construct: GST-full length", "how_it_was_run": "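Detection of bound protein used fluorescent anti-GST, with scans normalised by masliner. The proteins were GST-tagged yeast transcription factors applied at about 100-200 nM to universal all-10-mer Agilent arrays made double-stranded by primer extension. Each ungapped eight-base word, pooled with its reverse complement, was scored with an E-score from the Universal PBM Analysis Suite.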", "values": [{"sequence": "CTCATCGC", "PBM E-score": -0.0979}, {"sequence": "GTGCATGA", "PBM E-score": 0.0843}, {"sequence": "CTAACAAA", "PBM E-score": 0.12}, {"sequence": "TACACACA", "PBM E-score": 0.202}, {"sequence": "GGCGTGCA", "PBM E-score": -0.00279}, {"sequence": "GCTAACAA", "PBM E-score": 0.201}, {"sequence": "AAGTCTTA", "PBM E-score": -0.2}, {"sequence": "GTAACAAC", "PBM E-score": 0.037}, {"sequence": "CGTAAGGC", "PBM E-score": 0.358}, {"sequence": "CAGGGGAA", "PBM E-score": -0.305}, {"sequence": "CGTTCGCC", "PBM E-score": 0.206}, {"sequence": "TCCCCGGA", "PBM E-score": -0.195}, {"sequence": "GAACCGCC", "PBM E-score": -0.0162}, {"sequence": "CTAGTTTC", "PBM E-score": -0.11}, {"sequence": "CACAATCA", "PBM E-score": 0.0635}, {"sequence": "GGATACAC", "PBM E-score": -0.11}, {"sequence": "ATCTTGCC", "PBM E-score": 0.123}, {"sequence": "AGACGCAT", "PBM E-score": -0.157}, {"sequence": "CCATAAAG", "PBM E-score": -0.0597}, {"sequence": "ATCCGCAC", "PBM E-score": 0.302}, {"sequence": "TCCTCGAA", "PBM E-score": 0.0519}, {"sequence": "GAAAATTC", "PBM E-score": 0.141}, {"sequence": "ACTTGTAG", "PBM E-score": -0.0616}, {"sequence": "GACTTAGC", "PBM E-score": -0.184}, {"sequence": "ACAGTGCC", "PBM E-score": 0.321}, {"sequence": "ACCTCGGC", "PBM E-score": 0.15}, {"sequence": "CCTAATGC", "PBM E-score": 0.00991}, {"sequence": "ACGGAGCC", "PBM E-score": 0.0815}, {"sequence": "AGGCGTAC", "PBM E-score": 0.137}, {"sequence": "AACGGACA", "PBM E-score": 0.152}, {"sequence": "TAATACTA", "PBM E-score": 0.0794}, {"sequence": "ACTGACTG", "PBM E-score": 0.0981}, {"sequence": "ACCCGAAT", "PBM E-score": -0.13}, {"sequence": "AATTTTTC", "PBM E-score": 0.159}, {"sequence": "CGCACTCC", "PBM E-score": -0.172}, {"sequence": "ATCTAAAA", "PBM E-score": 0.0644}, {"sequence": "CTGATAAC", "PBM E-score": 0.0243}, {"sequence": "AAACCTCG", "PBM E-score": -0.129}, {"sequence": "ACAGTCCT", "PBM E-score": -0.0842}, {"sequence": "ATCCTCAC", "PBM E-score": 0.0973}, {"sequence": "ATTGAAGA", "PBM E-score": -0.116}, {"sequence": "AATTCACT", "PBM E-score": 0.185}, {"sequence": "AGCGCGCG", "PBM E-score": 0.196}, {"sequence": "CGACCGTC", "PBM E-score": -0.185}, {"sequence": "ACAACCGA", "PBM E-score": 0.114}, {"sequence": "ATTATGCC", "PBM E-score": 0.283}, {"sequence": "CAGACATG", "PBM E-score": -0.0958}, {"sequence": "AGCTACCC", "PBM E-score": -0.182}, {"sequence": "TGGAATAA", "PBM E-score": 0.00418}, {"sequence": "ATAGGAGG", "PBM E-score": -0.0798}, {"sequence": "AGTACCAT", "PBM E-score": -0.0732}, {"sequence": "GCTCGCTA", "PBM E-score": -0.092}, {"sequence": "AGTGAGAA", "PBM E-score": -0.0155}, {"sequence": "CGTGTAAC", "PBM E-score": 0.0662}, {"sequence": "ATCCCTCC", "PBM E-score": -0.277}, {"sequence": "CCCTCGCG", "PBM E-score": 0.115}, {"sequence": "TAGTGCGA", "PBM E-score": -0.0834}, {"sequence": "TAGCTTGA", "PBM E-score": -0.2}, {"sequence": "ATAATTGA", "PBM E-score": 0.0846}, {"sequence": "GACGAAGA", "PBM E-score": 0.133}, {"sequence": "ATAAATAT", "PBM E-score": 0.279}, {"sequence": "CTGAGGGC", "PBM E-score": -0.237}, {"sequence": "CGGTATCC", "PBM E-score": -0.0671}, {"sequence": "TTACCCAA", "PBM E-score": -0.193}, {"sequence": "ACCACACT", "PBM E-score": -0.0376}, {"sequence": "GCGGCCAC", "PBM E-score": 0.188}, {"sequence": "CGGTCGCC", "PBM E-score": 0.0981}, {"sequence": "CTACACCC", "PBM E-score": -0.227}, {"sequence": "GAGATTAC", "PBM E-score": -0.0779}, {"sequence": "CGCACGGA", "PBM E-score": 0.39}, {"sequence": "TCGCACCA", "PBM E-score": 0.0289}, {"sequence": "ACCCGGAT", "PBM E-score": -0.231}, {"sequence": "ACACGGCG", "PBM E-score": 0.488}, {"sequence": "CGGACCAG", "PBM E-score": 0.0174}, {"sequence": "CAAAGCGC", "PBM E-score": 0.165}, {"sequence": "CGCAATTC", "PBM E-score": 0.101}, {"sequence": "ACGCGTAA", "PBM E-score": 0.0664}, {"sequence": "AGGCTCAA", "PBM E-score": 0.0744}, {"sequence": "ATGAATGG", "PBM E-score": -0.00478}, {"sequence": "AACCTCAT", "PBM E-score": -0.0102}, {"sequence": "GCAACAGA", "PBM E-score": 0.152}, {"sequence": "GGCTATAA", "PBM E-score": -0.00488}, {"sequence": "AGATAGAT", "PBM E-score": -0.0201}, {"sequence": "ATCTCACG", "PBM E-score": 0.015}, {"sequence": "ATCCTTAG", "PBM E-score": -0.0812}, {"sequence": "ATCCCGCC", "PBM E-score": -0.00695}, {"sequence": "ACCACAGG", "PBM E-score": -0.201}, {"sequence": "CATTTTCC", "PBM E-score": 0.114}, {"sequence": "GGCACGCC", "PBM E-score": 0.238}, {"sequence": "CAAAAGGC", "PBM E-score": 0.359}, {"sequence": "TTAAACAA", "PBM E-score": 0.0407}, {"sequence": "CATCCGGG", "PBM E-score": -0.226}, {"sequence": "AATGAACA", "PBM E-score": 0.0344}, {"sequence": "GTATACGA", "PBM E-score": 0.0385}]}]}
